Measured values as given in PubChem BioAssay AID686978 (National Center for Advancing Translational Sciences (NCATS), 2013).
Values joined by “and” are separate entries in the source; they are usually repeats but may differ in a detail not shown here. Equal values may be shown once. The whole screen tested about 420,000 compounds, of which about 64,000 (15%) were called active. Inconclusive means that the source gave no clear call. Such entries were picked first, then a sample of the others. Calls come from the whole dose curve; as a rule, active = well fitted inhibition curve with a large enough effect; inconclusive = small, poorly fitted or top-dose-only effect; inactive = flat fitted curve, though single readings scatter. A potency beside an inconclusive call is a rough fit, not a confirmed value.

assay: qHTS for Inhibitors of human tyrosyl-DNA phosphodiesterase 1 (TDP1): qHTS in cells in absence of CPT; conditions: DT40 Tdp1-/- hTDP1 cells, no CPT, ATP luminescence, 48 h; activity change, negative = growth inhibition: at 46.2 µM (top of the series) unless noted; note: nearly all actives have a fitted effect of over 55% in size
Outline: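 Luminescent ATP content (CellTiter-Glo) served as the growth readout. Knockout chicken DT40 cells expressing human TDP1 were exposed to compounds without camptothecin for a minimum 48 hr at 37 °C.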
% is set by controls: 0 for no effect and ±100 for the full control effect; potency is the fitted concentration of half-maximal effect; tags give direction and shape of the fitted curve.

Row | SMILES | Potency | activity change, negative = growth inhibition
1 | Cc1cccc(N2CCN(c3cccc(C)c3)C2c2cccnc2)c1 | inconclusive: 29.1 µM [inhibitor, single point] | –
2 | COC(=O)C1(C)CCCC2(C)C3CCC(C(C)C)C(CO)C3C(CO)CC12 (stereo unspecified) | inconclusive: 23.1 µM [inhibitor, partial curve, poor fit] | –
3 | CCN1CCN(Cc2ccc(NC(=O)c3ccc(C)c(NC(=O)C4=NN(c5ccccc5)C(=O)C4)c3)cc2C(F)(F)F)CC1 | inconclusive: 20.6 µM [inhibitor, single point] and inconclusive: 29.1 µM [inhibitor, single point] | –
4 | CN(CCO)c1cccc2c1S(=O)(=O)N[C@@H](Cc1ccccc1)CO2 | inconclusive: 29.1 µM [inhibitor, single point] | –
5 | CCOc1ccc(CCNC(=O)CN2N=C(c3ccccc3)CCC2=O)cc1OCC | inconclusive: 29.1 µM [inhibitor, single point] | –
6 | CCn1cc(CN2CCN(CC(C)(C)C)C(CCO)C2)c2ccccc21 (stereo unspecified) | inconclusive: 29.1 µM [inhibitor, single point] | –
7 | COc1ccccc1C(=O)C1CCCN(Cc2ccc(Oc3ncccn3)cc2)C1 (stereo unspecified) | – | inconclusive: -32.6% [inhibitor]
8 | CCOc1ccc(C(=O)NCC(=O)N2CCN(c3ccc(C(F)(F)F)cn3)CC2)cc1 | inconclusive: 2.31 µM [inhibitor, partial curve] | –
9 | O=C(c1ccc(Cl)cc1)N1CCCC(C(=O)N2CCN(c3ccccc3)CC2)C1 (stereo unspecified) | inconclusive: 29.1 µM [inhibitor, partial curve, poor fit] | –
10 | CCn1c(N2CCN(C(=S)Nc3ccc(OC)cc3)CC2)nc2ccccc21 | active: 14.6 µM | –
11 | COc1ccc(C(C)NC(=O)C23CC4CC(CC(C4)C2)C3)cc1 (stereo unspecified) | inconclusive: 29.1 µM [inhibitor, single point] | –
12 | O=C(NC(c1ccc(F)cc1)c1ccc2ccccc2n1)C1CCN(Cc2ccc(Oc3ccccc3)cc2)CC1 (stereo unspecified) | inconclusive: 29.1 µM [inhibitor, partial curve, poor fit] | –
13 | Cc1sc(N=Nc2ccc(N(C)C)cc2)[n+]([O-])c1C | inconclusive: 13 µM [inhibitor, partial curve, poor fit] | –
14 | COc1cccc(NC(=O)CSc2nnc(-c3ccoc3C)n2-c2ccccc2)c1 | inconclusive: 16.4 µM [inhibitor, partial curve, poor fit] | –
15 | Cc1cccc(CNc2ncnc3[nH]ncc23)c1 | inconclusive: 16.4 µM [inhibitor, partial curve] | –
16 | CC(C)Cc1nc(Nc2ccc(S(=O)(=O)N3CCCC3)cc2)c2nnn(Cc3ccccc3)c2n1 | inconclusive: 23.1 µM [inhibitor, single point] | –
